Experimental data taken from ChEMBL document CHEMBL4888484, “Replenishing the malaria drug discovery pipeline: Screening and hit evaluation of the MMV Hit Generation Library 1 (HGL1) against asexual blood stage Plasmodium falciparum ,using a nano luciferase reporter read-out” (2022).
Screen size: about 150,000 compounds; about 540 (0.36%) showed an effect of 50% or more. This is one part of the list.

tested on: Plasmodium falciparum; assay: Primary screen in NF54 nanoGlo assay, in single point, at 2uM, 72h; a lower Z score goes with more inhibition; assay type: functional, Erythrocyte; conditions: timepoint 72 hour

| SMILES | % Inhibition | Z score |
| --- | --- | --- |
| CCc1nc2c(c(OC3CCN(S(=O)(=O)Cc4ccccc4)CC3)n1)CCOCC2 | -8% | 0.97 |
| COc1cccc(CNC(=O)c2c(C)noc2-c2cccs2)c1 | 11% | -1.79 |
| Cc1cc2c(c(N)c1C)[C@@H](C)CC21CCCCC1 | -2% | 0.18 |
| Cc1noc2nc(-c3cnn(C)c3)cc(C(=O)Nc3ccn(C(C)C)n3)c12 | 25% | -2.8 |
| Cc1nnsc1C(=O)NCC1CCN(c2cnccn2)CC1 | -4% | 0.59 |
| c1cc2nnnn2nc1NC(C1CCCC1)C1CCCC1 | 3% | -0.33 |
| CCn1c([C@H]2CCCN(Cc3ccccc3Cn3cccn3)C2)n[nH]c1=O | -8% | 1.07 |
| Cc1csc(NC(=O)c2c(-c3ccccc3)c(-c3ccccc3)n[nH]c2=O)n1 | 5% | -0.94 |
| COCC(=O)N1C[C@H](Nc2ccc(C(F)(F)F)cn2)[C@@H](C2CC2)C1 | -6% | 1.2 |
| COCCN(C(=O)c1cc(C)oc1C)c1ccncc1 | 4% | -0.65 |
| Cc1ccc(S(=O)(=O)NCc2nnc(C(=O)Nc3ccccc3F)s2)c(C)c1 | 9% | -1.08 |
| CN(Cc1cn(CC(N)=O)nn1)C[C@]1(O)CCc2ccccc21 | -4% | 0.35 |
| O=S(=O)(c1ccc2oc(Nc3ccc(F)c(Cl)c3)nc2c1)N1CCOCC1 | -6% | 1.03 |
| FC(F)(F)c1nc2nccc(-c3cccc4ccccc34)n2n1 | -8% | 1.06 |
| Cc1nonc1CC(=O)N[C@H]1CC(=O)N(CCCc2ccccc2)C1 | -10% | 1.21 |
| COc1ccccc1Cc1n[nH]c(CNC2CC2)n1 | 13% | -1.67 |
| O=C(O)[C@]12CN(Cc3ccncc3)C[C@H]1CN(Cc1ccccc1Cl)C2 | -9% | 1.71 |
| CNC(=O)C1(NC(=O)CCCc2ccccn2)CCCC1 | -7% | 0.76 |
| Cc1c[nH]c(C(C)(C)NC(=O)c2ccc3[nH]c(=O)[nH]c3c2)n1 | -13% | 1.78 |
| CN(CCC[C@H]1CCCO1)CC(=O)N(C)c1ccccc1 | -16% | 1.86 |
| CNC(=O)CN1CC2OCCN(Cc3ccccc3)C2C1 (stereo not drawn) | -8% | 1.12 |
| CCS(=O)(=O)N(CCN1CCCCC1)C1CN(C(=O)CC2CCCCC2)C1 | -4% | 0.51 |
| O=C1[C@@H]2CC[C@@H](C2)N1Cc1cccc(C(F)(F)F)c1 | 4% | -0.52 |
| O=C(NCc1ccccc1Cl)[C@H]1CCCN(c2nc3ccccc3o2)C1 | -18% | 2.68 |
| Cc1ccnc(-n2cccc2CN2CCOC[C@@H](CN(C)C)C2)c1 | -13% | 1.4 |
| Cc1nccc(NC(=O)N2C3CCC2CC(CCF)C3)n1 (stereo not drawn) | -5% | 0.79 |
| Cc1ccc(S(=O)(=O)N2CCOC[C@@H](CN(C)C)C2)c(F)c1 | -4% | 0.73 |

| SMILES | % Inhibition | Z score |
| --- | --- | --- |
| N#Cc1c(N)sc2c1CCN(C(=O)c1cnc3ccccn13)C2 | -23% | 2.34 |
| OC1=Nc2cccc3c2c(cn3Cc2cccc(F)c2)[C@@H](c2ccco2)C1 | -2% | 0.36 |
| COc1ccc(NC(=O)CC[C@H]2CCCN(C(=O)c3cccc(Cl)c3F)C2)c(C)c1 | 14% | -1.59 |
| CC1=C(C(=O)Nc2cccnc2)[C@H](c2ccc(OCc3ccccc3)cc2)n2nc(-c3ccccc3)nc2N1 | 7% | -0.82 |
| CN(C)C(=O)CN(C)S(=O)(=O)N(C)Cc1ccccc1 | -2% | 0.31 |
| CCc1nc(C(=O)Nc2ncccc2OC)nn1-c1c(Cl)cccc1Cl | -5% | 0.56 |
| NC(=N\OCc1ccccc1)/C(N)=N/OCc1ccccc1 | 30% | -3.89 |
| CCc1ncc2c(n1)CN(C(=O)C(C)(C)Oc1ccccc1OC)C2 | -20% | 2.04 |
| O=C(c1nc2cccnc2s1)N(Cc1ccco1)C[C@H]1CCCO1 | -11% | 0.97 |
| O=C(c1cn(C(c2ccccc2)c2ccccc2)nn1)N1CCC[C@H]1CO | 5% | -0.59 |
| O=C1CCCN1CCCN(CCS(=O)(=O)N1CCNCC1)S(=O)(=O)c1ccc(Cl)cc1 | 5% | -0.59 |
| O=C(NCc1ccccc1)N1CC[C@H](Oc2ncccn2)C1 | -11% | 1.65 |
| Cn1cnnc1CNC[C@](C)(O)c1ccc(Br)cc1F | -3% | 0.57 |
| Cc1nc(NC(=O)c2cc(-c3ccccc3)on2)sc1C | 10% | -1.19 |
| O=C(Cc1cccs1)N1C2CCC1CC(S(=O)(=O)c1ccccc1)C2 (stereo not drawn) | -16% | 2.07 |
| O=C(c1cc(F)ccc1F)N(C1CCCC1)C1CC1 | -6% | 0.7 |
| O[C@@H]1C[C@H]2CN(c3ncccc3C(F)(F)F)C[C@H]2C[C@@H]1O | -5% | 0.64 |
| COC[C@@H](c1ccnn1C)n1cc(-c2cnc(N(C)C)nc2)nn1 | 9% | -1.28 |
| Cc1nc(-c2cccc(Br)c2)ccc1C(=O)N1CCOCC1(C)C | -4% | 0.8 |
| COc1ccc(NC(=O)Nc2ccc(-c3nc4ccccc4s3)cc2C)cc1 | -4% | 0.6 |
| COc1ccc(Br)cc1CC(=O)[C@H](C#N)C(=O)c1nccn1C | -6% | 1.12 |
| Cc1noc(C)c1CN(C)C(=O)c1ccsc1 | 3% | -0.69 |
| Cc1nnc2ccc(-c3noc(Cc4cccc(Cl)c4)n3)cn12 | -14% | 2.34 |
| CN1C(=O)[C@]2(CCCN(C(=O)NCCc3nncn3C)C2)c2ccccc21 | -21% | 3.65 |
| COCCn1nnc2cc(S(=O)(=O)N3CCCC[C@H]3C(=O)Nc3cccc(Cl)c3C)ccc21 | -26% | 2.27 |
| O=C(c1ccco1)N1CCC[C@H]1c1nc(-c2ccccc2)no1 | 0% | 0.04 |
| NC(=O)C1=C(N2CCN(c3ccccc3)CC2)c2ccccc2S1(=O)=O | 0% | 0 |
